# The whole screen tested about 150,000 compounds, of which about 540 (0.36%) showed an effect of 50% or more. Some of the results follow.
# Test system: Plasmodium falciparum
# Assay: Primary screen in NF54 nanoGlo assay, in single point, at 2uM, 72h; a lower Z score goes with more inhibition
# Type: functional, Erythrocyte
# Conditions: timepoint 72 hour
Compound,% Inhibition,Z score
CC(C)(C)OC(=O)N1CCN[C@H](c2ccccc2)C1,-8%,1.53
O[C@H]1CCN(Cc2nc3cc(F)ccc3o2)C12CCCC2,7%,-1.08
Cc1ccc2c(C(=O)N3CCC(C)(C)C3)cc(-c3cncnc3)nc2c1C,-9%,1.63
Cc1nc(-c2ccccc2C(F)(F)F)c(N)c(N2CCOCC2)n1,3%,-0.38
COCCC1(NC(=O)c2ccc(C#N)cc2)CCN(CC2CC2)CC1,-1%,0.13
CC1(C)COC[C@@H]1NCc1ccncc1F,-6%,0.84
Cc1[nH][nH]c(=O)c1CC(=O)N1CCOC[C@@H]1CC(=O)Nc1cccc(F)c1,-10%,1.32
C#CCN1CCC[C@H]1C(=O)Nc1nc(-c2cccs2)c(-c2cccs2)s1,-8%,1.16
CN1CC(NC(=O)[C@@H]2COCC[C@@H]2c2ccccc2)CC1=O (some centres not stated),7%,-1.1
Cc1cc(S(=O)(=O)N2CCN(c3nc[nH]n3)CC2)c(C)o1,-10%,1.55
Cc1ccc(C(=O)N2CCn3c(nnc3C3CCN(S(=O)(=O)C(C)C)CC3)C2)cc1F,-7%,1.17
CCn1nnc2c(N3CC(C(=O)Nc4ccc5c(c4)OCCO5)C3)ncnc21,-14%,2.11
Cc1nc(C)c(CNC(=O)NCc2cccc(-n3cncn3)c2)s1,-10%,1.14
O=C(C1CCC1)N(CCN1CCOCC1)CC(=O)N1N=C(c2ccc(F)cc2)C[C@H]1c1ccccc1Cl,-12%,1.18
CCN1C[C@@H](c2ccccc2)CC2(CCN(c3cc(C)nc(NC)n3)CC2)C1,1%,-0.27
NC(=O)Cc1nc(CCN2CCCCCC2=O)n(CC(F)(F)F)n1,-11%,1.11
C[C@H](NC(=O)Nc1ccc2c(c1)OCO2)c1ccncc1,-11%,2.22
CN1CCC[C@H]1C(=O)NCc1cc(COc2ccccc2)cs1,-5%,0.83
Cc1c(Cl)c(CN2CCOCC23CC3)nn1C,-8%,1.47
Cc1noc(C)c1CN1CCC[C@H]1c1nc(-c2ccccc2)n[nH]1,-13%,2.04
Cn1cc(-c2ncnc3[nH]cnc23)cn1,7%,-0.63
Cc1noc(C)c1S(=O)(=O)NC[C@@H](c1cccs1)N(C)C,-8%,1.15

Compound,% Inhibition,Z score
COc1ccc(S(=O)(=O)N[C@@H](CC(=O)NC2CCCC2)c2ccco2)cc1,15%,-1.75
Cc1ccc(CN(C(=O)c2ccc(C(=O)O)cc2F)C(C)C)s1,-4%,0.59
N#Cc1cccc(CN[C@@H]2CO[C@H](CNC(=O)c3ccncc3)[C@H]2O)c1,-8%,1.05
CCCC(=O)NCc1ccc(CNC(=O)CCC)cc1,5%,-0.57
CCc1csc(-c2ccc(S(=O)(=O)Nc3cc(F)cc(F)c3)s2)n1,-10%,1.97
Cc1[nH]c(CN2CCC[C@H](c3ncc[nH]3)C2)cc1C#N,-1%,0.23
C[C@H]1Cc2cc(C(=O)NCc3cnc4c(c3)CCC4)ccc2O1,-17%,2.98
O=C(NC1CCCC1)c1ccc(N[C@H]2CCCc3cn(C4CCCC4)nc32)nn1,2%,-0.22
COc1ccc(NC(=O)C2CCN(c3cc(-c4cccc(F)c4)ncn3)CC2)cc1,4%,-0.46
O=C(NCc1cccs1)NCC1(c2ccccc2)CC1,-10%,1.6
Cc1ccc(N2CCCC2)c(C(=O)OCc2noc(C)n2)c1,-15%,1.98
CC(C)c1cc(=O)[nH]c(-n2nc(C3CC3)cc2NC(=O)c2ccc(F)c(F)c2)n1,5%,-0.72
Cc1ncsc1CCS(=O)(=O)N(C)C1CC(C)(C)C1,-11%,2.04
Cc1ccc(C)c(Cn2c(N3CCN(CC=Cc4ccccc4)CC3)nc3c2c(=O)[nH]c(=O)n3C)c1,18%,-3.77
CCOc1cc2c(cc1-c1nccn1CCc1c[nH]cn1)CCC2,5%,-0.72
CCOC(=O)CN(C)c1ncc(CN[C@@H]2CCOC2)cn1,6%,-1.2
CCn1nc(C)c(CNc2ncc(C)s2)c1C,-5%,0.83
COc1ccccc1CNC(=O)c1cc2n(n1)CCCO2,-22%,3.46
CN1CCC(CCNS(=O)(=O)Cc2ccccc2)CC1,-14%,1.98
COc1ccc(CC(C)(O)CNC(=O)C2CC=CCC2)cc1 (configuration not stated),-10%,1.42
COCCC(=O)Nc1cc(Br)ccc1Br,-6%,0.53
Nc1c2c(-c3ccc4c(c3)OCO4)nc(N3CCC(N4CCCCC4)CC3)nc2nn1-c1ccc(Cl)cc1,-5%,0.45

Compound,% Inhibition,Z score
Cc1cnc(CN2CCc3cncnc3C2)cn1,-4%,0.71
Oc1ccc2c(c1)CCN(c1nccn3nc(C(F)(F)F)cc13)CC2,-3%,0.59
C[C@@H](C(=O)NCc1n[nH]c(C(C)(C)C)n1)c1ccccc1F,0%,-0.04
Cc1cc(Cl)ccc1CNC[C@H](O)c1ccco1,-9%,0.95
COc1ccc(C(=O)NCC(=O)N2CC[C@H](Oc3cccc(F)c3)C2)cc1,-1%,0.2
O=C(NCCc1cnn(-c2ccccc2)c1)c1cc(Cl)c[nH]1,-11%,2.09
Cc1noc(C2CCC(NCc3sccc3C)C2)n1 (configuration not stated),-13%,2.74
Cn1cnn(CCOc2cc(Cl)ccc2Cl)c1=O,-8%,1.58
O=C(c1cc(F)ccc1F)N1CCC[C@H]1c1nc(-c2ccccc2)no1,-7%,0.8
CC(C)N1CCn2cc(S(=O)(=O)Nc3ccc(Cl)cc3)cc2C1=O,4%,-0.63
O=C(c1ccon1)N1CCC[C@H](Cn2cc(-c3ccsc3)nn2)C1,5%,-0.69
COC[C@@H]1[C@H](C(=O)NCCCc2ccccc2)CCCN1Cc1ccccc1,-21%,2.42
O=C1CC2CS(=O)(=O)CC2N1c1nc(-c2ccc(Cl)cc2)cs1 (configuration not stated),-9%,0.78
CCN(CC)CCN(CC(=O)N1CCCN(c2ccc(-c3cccc(OC)c3)nn2)CC1)C(=O)C1CCC1,-8%,1.32
NCc1nccn1CCCc1ccccc1,-5%,0.65
c1ccc(C2CCC(N3CCN(Cc4ccco4)CC3)CC2)cc1 (configuration not stated),36%,-4.13
CCC1CN(C(=O)C2CC(=O)N(CC3CC3)C2)CC1N1CCOCC1 (configuration not stated),-14%,1.25
c1ccc(Nc2ccc(-n3ccnc3-c3cc4n(n3)CCCNC4)cn2)cc1,13%,-2.58
CCn1c(CC2CCN(C(=O)c3ccc(O)cc3)CC2)nn(C)c1=O,4%,-0.7
COc1c[nH]c(C(=O)NCc2nc(C)no2)cc1=O,-8%,1
CN(C)c1cccc(NC(=O)NC2C3C4CCC(C4)C23)n1 (configuration not stated),31%,-3.94
O=C(C1CCC1)N1CCCc2cc(S(=O)(=O)N3CCc4ccccc43)ccc21,-10%,1.23

Compound,% Inhibition,Z score
O[C@]1(CN2CCCC2)COCCN(Cc2ccc(C(F)(F)F)nc2)C1,-10%,0.92
CCN1CN(C(=O)NCCc2ncc(C)s2)CC1=O,-5%,0.81
CCCNC(=O)Nc1nn(Cc2ccccc2)c2cccc(N3CCOCC3)c12,-5%,0.6
Cc1nonc1CC(=O)N[C@H]1CCOC[C@@H]1OCc1c(C)noc1C,-7%,1.43
COc1ccc(NC(=O)Cn2c(-n3nc(C)cc3C)nc3c(c2=O)CCCC3)cc1OC,0%,-0.06
CN(C)S(=O)(=O)N1CC(Oc2nccs2)C1,-6%,0.95
c1ccc2c(c1)NCCCC2NCC1COC2(CCOCC2)O1 (configuration not stated),-1%,0.11
Nc1cc(C(F)(F)F)ccc1NCCCC(=O)O,-3%,0.48
Oc1cc(CN[C@H]2CC[C@H](O)CC2)nc2c(F)cccc12,5%,-0.73
CCNC(=O)c1cc(NC(=O)N2CCC(C(C)C)CC2)c(C)s1,-4%,0.55
O=C(Nc1ccccn1)[C@H]1CCCN(S(=O)(=O)c2c(F)cccc2F)C1,-12%,2.17
CC(C)[C@@H](c1ccccc1)N(C(=O)c1cocn1)C(C)C,-9%,1.72
O=C(NC1CCCCCC1)[C@H]1CC[C@H](Cn2cnnn2)CC1,-11%,1.61
Cc1ccc2nc(NCc3ccccc3Cl)c(-c3noc(C)n3)cc2c1,6%,-0.77
CCc1[nH]nc(C(=O)N(CC)Cc2nc(C(C)C)no2)c1C,-13%,1.28
Cc1nonc1C(=O)N(C)CCCNC(=O)C1CCC1,1%,-0.09
Cn1nc(CN(Cc2ccco2)S(=O)(=O)c2ccc3c(c2)CCO3)cc1C1CC1,-10%,1.95
COc1cc(OC)n(CC(=O)NCc2ccccc2C)n1,-1%,0.17
CS(=O)(=O)N1CCC[C@H](Oc2ccncc2)C1,11%,-1.52
COCCCN(CCOC)C(=O)Nc1ccc2oc(C3CC3)nc2c1,-12%,1.58

# Source: ChEMBL document CHEMBL4888484, “Replenishing the malaria drug discovery pipeline: Screening and hit evaluation of the MMV Hit Generation Library 1 (HGL1) against asexual blood stage Plasmodium falciparum ,using a nano luciferase reporter read-out” (2022)
